Experimental findings from PMC4357395 (Journal of Medicinal Chemistry, 2015) are described below.

One experiment deals with PanK3 (Homo sapiens, UniProt Q9H999). Put plainly: PanK3 Kinase Glo. The class given is biochemical. The following applies: for activity against PanK3, in words: SAR discussion. On the technique in general: In Kinase-Glo more light means more ATP remaining.
The target in another experiment is T1, PanK1β (Homo sapiens, UniProt Q8TE04).
T1 sequence (Q8TE04 1-373 isoform Q8TE04-2): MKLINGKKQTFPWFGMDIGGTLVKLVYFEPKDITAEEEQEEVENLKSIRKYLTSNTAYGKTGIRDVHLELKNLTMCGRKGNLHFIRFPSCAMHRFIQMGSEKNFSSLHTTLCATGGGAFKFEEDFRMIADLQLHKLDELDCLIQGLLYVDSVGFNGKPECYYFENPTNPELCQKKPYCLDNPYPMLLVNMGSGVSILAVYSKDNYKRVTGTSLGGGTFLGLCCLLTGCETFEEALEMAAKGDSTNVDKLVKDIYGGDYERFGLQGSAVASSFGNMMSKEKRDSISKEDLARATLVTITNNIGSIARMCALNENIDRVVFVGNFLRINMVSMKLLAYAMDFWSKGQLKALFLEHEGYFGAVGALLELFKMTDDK
The experiment is described as follows: PanK1β dose response analysis. It is filed as biochemical. The following applies: SAR discussion.

Structures are written as SMILES.

UniProt Q9H999, sequence (Q9H999 whole entry): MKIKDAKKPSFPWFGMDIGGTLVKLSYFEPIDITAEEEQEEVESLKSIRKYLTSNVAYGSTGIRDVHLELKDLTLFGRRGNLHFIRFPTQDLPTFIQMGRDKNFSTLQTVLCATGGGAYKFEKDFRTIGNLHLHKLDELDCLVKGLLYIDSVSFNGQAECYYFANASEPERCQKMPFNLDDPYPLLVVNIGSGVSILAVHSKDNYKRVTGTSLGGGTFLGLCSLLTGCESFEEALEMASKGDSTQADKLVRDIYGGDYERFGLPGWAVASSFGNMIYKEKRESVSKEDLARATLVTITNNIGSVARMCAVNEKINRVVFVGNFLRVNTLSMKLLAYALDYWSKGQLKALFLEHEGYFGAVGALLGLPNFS

With `Cc1nc2c3cccnc3nn2c(C)c1CCC(=O)NC1CCCCC1` [Compound 17], the “activity against PanK3, in words” value on PanK3 was “abrogated the activity”. Also, on PanK1β, the “activity against PanK1β, in words” value is on record as “decreased the activity”.

As for `CSc1ccc(NC(=O)CCc2c(C)nc3c4cccnc4nn3c2C)cc1` [Compound 14], on PanK3 (compared to 7), the “reduction of activity on moving −SMe from meta- to para-position” value was 30 fold. Take `Cc1nc2c3cccnc3nn2c(C)c1CCC(=O)N(C)c1ccccc1` [Compound 16]: the “activity against PanK3, in words” value on PanK3 is “completely inactive”. For the same compound, the “activity against PanK1β, in words” value on PanK1β was “completely inactive”.
